# Data published in PubChem BioAssay (NCI).
# Some structures have more than one record in an assay (separate samples or runs), and their calls can disagree.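 Percent growth is the endpoint: 0 to 100 indicates growth inhibition (40 means 60% inhibition), 0 means no net growth, and negative values indicate cell death.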 The source holds more than one record for some entries. The other results are left out here. Rule for the calls: active = growth percent below 10; inactive = the rest. An entry can have further records. The screen tested this drug many times, at the concentration stated with the values; each value is one run. Brackets with × count equal records among those shown.
# Test system: NCI-H460 lung
# Experiment: NCI-60 one-dose screen, 48 h (100 = growth as untreated, 0 = no growth, -100 = all killed)
smiles,measurement,setting,value
COc1cccc2c1C(=O)c1c(O)c3c(c(O)c1C2=O)C[C@@](O)(C(=O)CO)C[C@@H]3OC1CC(N)C(O)C(C)O1 (stereo not given in full),growth,"0.25 µM, runs of 2018","active: 9.56, 9.41, 8.16, 8.73, 9.15, 9.01, 8.92, 9.96, 9.71, 8.2, 9.45 (2×), 9.11, 8.59, 7.75, 6.59, 7.1, 7.7, 9.44, 8.87 (2×), 9.89, 8.75, 8.86, 8.17, 9.78, 8.46, 8.51, 7.6, 7.15, 8.01, 8.77, 9.06, 9.66, 9.53, 2.18, 5.23% and inactive: 10.6, 10.4 (3×), 13.6 (2×), 13.3, 11.5, 12.3, 10, 10.1, 10.7 (2×), 10.2, 14.5%"
same,growth,"0.25 µM, runs of 2019","active: 1.04, -0.984, -31.5, -17.3, -0.769, -0.401, 4.4, 2.39, -2.11, 0.93, -3.63, -0.997, 0.942, 6.54, 4, 2.9, 5.29, 2.16, 7.63, 3.99, 0.162, -0.38, 8.27, -1.36, 5.98, 6.12, 8.34, 5.02, 4.37, 3.91, 5.61, 6.07, 5.06, 3.25, 8.62, 8.88, 3.85, 4.81, 9.64, 3.09, 9.77, 8.44, 4.24, 5.74, 6.16, 2.6, 6.58, 6.13, 5.91%"
same,growth,"0.25 µM, runs of 2020","active: 2.98, 7.9, 8.63, 8.78 (2×), 7.37, 7.29, 8.53, 9.53, 7.49, 7.13, 8.26, 7.71, 9.45% and inactive: 10.9, 14.6 (2×), 11.5, 10.8, 11.3, 10.6%"
same,growth,"0.25 µM, runs of 2021","active: 7.46, 9.21, 8.77, 5.85, 7.24, 7.97, 7, 7.45, 8.13, 3.06, 9.28, 5.24, 5.93, 7.35, 8.45, 8.79, 5.28, 4.94, 4.4, 6.1, 3.54, 3.19, 5.52, 4.16, 2.86, 4.79, 5.43, 5.12, 7.11, 7.28, 2.85, 2.77, 6.59, 5.62, 2.78, 5.11, 7.58, 4.01, 4.63, 5.79, 2.26, 3.75, 5.8, -2.11, 9.4, 2.31, 3.27, 7.69% and inactive: 10.2%, 15.8%, 11.8%"
same,growth,"0.25 µM, runs of 2022","active: 2.45, 3.38, 2.96, 2.21, -33.3, 4.6, -13.9, 2.72, 2.22, 6 (2×), -12.3, 3.02, 8.11, 4.93, 7.69, 8.05, -1.29, 5.84, 4.29, 4.94, 6.88, 4.38% and inactive: 16.6, 15.2, 14.5, 19.4%"
same,growth,"25 µM, runs of 1991","active: -16, 4.33, -49.8, -66.9, -42.2, -34 (2×), -11.8, -50, -19.5, -12.1, -26.3, -18.6, -44, -65.1, -56.9, -74.9%"
same,growth,"25 µM, runs of 1992","active: -50.5, 2.48, -44.4, -31.1, -58.9, -46.1, -66.7, -51.5, -35.2, -6.95, -43.5 (2×), -57.3, -58.2, -45, 0.632, -38.9, 2.68, -58.7 (2×), -77.2, -50, -58.6, 0.0971, -56.1, -17.6, -55.2, -42.1, -35.7 (2×), -46.7, -61.1, -54.1, -55.1, -54.8, -40.9, -42.5, -100 (2×), -55.8, -35.6, -39.5, -26.1, -37.5, -38.7, -55.5 (2×), -78.2, -67, -62.4, 8, -51.6, -57.1, -65.3, -31.3, -73.3, -24.9, -53.6, -61, -68.3, -61.5, -54.5, -36.1, -29.1, -59.6, -98.4, -33.6, -63.9, -51.7, -92.5, -77.5, -51.1, -85.9, -81.1, -39, -66, -50.8, -26.9, -44, -79.6, -74.9, -53.5, -56.7, -83.7, -65, -70.3, -47.3, -27.1, -92, -60.1, -41.4, -59.7, -68.5, -69, -47.9, -46.4, -48.5, -53, -83.4, -78.1, -2.64, -42.2, -85, -31, -41.2, -91.6, -89.3, -8.87, -6.36, -24, -84.3%"
same,growth,"25 µM, runs of 1993","active: -13, -33.4, -34.4, -59.6, 1.98, -12.8, -85.6, -53.6, -52, -20.7, -26.7, -44.4, -25.9, -83.3, -78.1, -81.5, -8.76, -52.8, -36.7, -60.4, -63.9, -39, -18.6, -8.63, -73.8, -18, -28.8, -38.9, -53.9, -3.67, -66.1, -77.5, 0.0324, -32.1, -37.4, -50, -86.3, -54.6, -29.8, -58.3, -82.4%"
same,growth,"25 µM, runs of 1994","active: -9.26, -51.5, -43.8, -56.2, -84.5, -39.4, -47.2, -39.5, -58.9, 1.09, -57.6, -72.3, -37.6, -12.3, -46, 0.312, -76.2, -18.2, -53.6, -75.2, -34.9, -80.8, -63.6, -37.4, 0.858, -61.1, -21.3, 2.72, 8.21, -57.9, -27.3% and inactive: 84.8%"
same,growth,"25 µM, runs of 1995","active: -34.3, -44.8, -63.4, -31.7, -69.4, -13.3, -0.644, -32.3, -23, 3.14, -5.74, -34.6, -9.93, -10.1, 1.4, -2.08, 0.582, 1.87, -12.2, -51, -100 (2×), -65, -52.3, -66.8, -88.9, -48.4, -59.4, -72.1, -64.7, -64, -38.4, -45.6, -68.2%"
same,growth,"25 µM, runs of 1996","active: -36.9, -53.3, -48, -34.3, -17.8, -40, -77.4, 1.93, -20.9, -35.9, 1.32, -3.97, -48.2, -55.6, -36.7, -2.7, -23.4, 0.066, -43.9, -43.3, 1.91, -13.4, -42.9, -35.6, -51.6, -54.2, -42.1, -22.4, -52.3, -79.5, -52.5, -63.8, -61.2, -57.9, -64.2, -59, -23.1, -41.6, -67.8, -55.1, -56.4, -66.4, -72.2, -64.5, -62.6, -24.3, -64.4, -75.6% and inactive: 100%"
same,growth,"25 µM, runs of 1997","active: -79.4, -84.9, -69.4, -91.2, -31.9, 3.87, -38.2, -18.2, -5.61, -21.5, -45.3, -8.86, 1.59, -60.1, -14.9, -28.1, -52.8, -27.3, 0.871, -32.4, -34.3, -25.4, -12.3, -56.2, -14.7, 2.25, 1, -34.6, -5.34, 0.969, 1.63, -20.4, -43.3, 1.33 (2×), -3.55, 1.11, 4.46%"
same,growth,"25 µM, runs of 1998","active: -33, -42.5, 3.88, -23.9, 5.45, 9.12, -19.4, -39.2, -50.1, -19.2, -7.97, 1.81, -11.2, -33.6, 0.775, 5.44, -22.7, 9.84, -39.4, -30, -40.7, -24.1, -25.4%"
same,growth,"25 µM, runs of 1999","active: -100 (3×), -55.2, 3.96, -80.9, 2.29, -8.37, -42.5, -42.6, -2.57, -34, -8.87, 2.52, -20.2, 3.16, 3.32, 2.84, 0, -3.91, 0.57, 1.34, 1.97, 4.04, 5.42, -8.31, -50.8, -15.9, -47.9, -11, 0.106, 3.43, -2.8, 0.276, -23.2, 1.27, -78, -81.1, 0.895, -79.8%"
same,growth,"25 µM, runs of 2000","active: -100% (2×), -91.8%"
